Results as given in the RNAGym collection of RNA variant scans (doi:10.1073/pnas.2313332121).
Variants at the background level are over-represented here.

B1: TPR 5TU (parent)
chain: GGAUCUUCUCGAUCUAACAAAAAAGACAAAUCUGCCACAAAGCUUGAGAGCAUCUUCGGAUGCAGAGGCGGCAGCCUUCGGUGGCGCGAUAGCGCCAACGUUCUCAACUAUGACACGCAAAACGCGUGCUCCGUUGAAUGGAGUUUAUCAUG

Variants of: B1
Test: polymerase ribozyme fitness, log enrichment relative to wild type (log ratio); higher = more active; in vitro selection for triplet polymerase activity
Procedure, shortened: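 Mutant libraries were PCR-built and transcribed for each subunit of a heterodimeric triplet polymerase ribozyme and selected for one round in triplicate at −7 °C, frozen, before gel excision of extended constructs and streptavidin-bead capture. Input and output libraries were Illumina-sequenced, keeping genotypes with ≥10 input reads and ≥1 read per output. Fitness is a logarithmic ratio of genotype to wild-type enrichment, in base 2, using inverse-variance-weighted replicate averages.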

Variant | polymerase ribozyme fitness (log ratio)
GGAUCUUCUCGAUCUAACAAAAAAGACAAAUCUGCCACAAAGCUUGAGAGCAUCUUCGGAUGCAGAGGCGGCAGCCUUCGGUGGCGCGAUAGCGCCAACGUUCUCAACUAUGACACGCAAAACGCGUGCUCCGUUGGAUGCAGUUUAUCAUG [A137G G141C] | -2.74
GGAUCUUCUCGAUCUAACAAAAAAGACAAAUCUGCCACAAAGCUUGAGAGCAUCUUCGGAUGCAGAGGCGGCAGCCUUCGGUGGCGCGAUAGCGCCAACGUUCUCAACUAUGACACGCAAAACGCGUGCUCCGUAGAAUGGAGUUUAUCAUG [U135A] | -0.939
GGAUCUUCUCGAUCUAACAAAAAAGACAAAUCUGCCACAAAGCUUGAGAGCAUCUUCGGAUGCAGAGGCGGCAGCCUUCGGUGGCGCGAUAGCGCCAACGUUCUCAACUAUGACACGCAAAACGCGUGCUCCGUCGAAUGGAGUUUAUCAUG [U135C] | -1.38
GGAUCUUCUCGAUCUAACAAAAAAGACAAAUCUGCCACAAAGCUUGAGAGCAUCUUCGGAUGCAGAGGCGGCAGCCUUCGGUGGCGCGAUAGCGCCAACGUUCUCAACUAUGACACGCAAAACGCGUGCUCCGUGGAAUGGAGUUUAUCAUG [U135G] | -3.19
GGAUCUUCUCGAUCUAACAAAAAAGACAAAUCUGCCACAAAGCUUGAGAGCAUCUUCGGAUGCAGAGGCGGCAGCCUUCGGUGGCGCGAUAGCGCCAACGUUCUCAACUAUGACACGCAAAACGCGUCCUCCGUUGAAAGGAGUUUAUCAUG [G128C U139A] | ≤ -4.2
GGAUCUUCUCGAUCUAACAAAAAAGACAAAUCUGCCACAAAGCUUGAGAGCAUCUUCGGAUGCAGAGGCGGCAGCCUUCGGUGGCGCGAUAGCGCCAACGUUCUCAACUAUGACACGCAAAACGCGUGCUCCGAUGACUGGAGUUUAACAUG [U134A A138C U148A] | ≤ -4.2
GGAUCUUCUCGAUCUAACAAAAAAGACAAAUCUGCCACAAAGCUUGAGAGCAUCUUCGGAUGCAGAGGCGGCAGCCUUCGGUGGCGCGAUAGCGCCAACGUUCUCAACUAUGACACGCAAAACGCGUCCUCCGUUGAAUGGAGUUUAUCGUG [G128C A150G] | ≤ -4.2
GGAUCUUCUCGAUCUAACAAAAAAGACAAAUCUGCCACAAAGCUUGAGAGCAUCUUCGGAUGCAGAGGCGGCAGCCUUCGGUGGCGCGAUAGCGCCAACGUUCUCAACUAUGACACGCAAAACGCGUGCUGCUUUGAAUGGAGUUUAUCAUG [C131G G133U] | -3.77
GGAUCUUCUCGAUCUAACAAAAAAGACAAAUCUGCCACAAAGCUUGAGAGCAUCUUCGGAUGCAGAGGCGGCAGCCUUCGGUGGCGCGAUAGCGCCAACGUUCUCAACUAUGACACGCAAAACGCGUGCUCCGCUGAAUGGAGGUUAUCAUG [U134C U144G] | 0.895
GGAUCUUCUCGAUCUAACAAAAAAGACAAAUCUGCCACAAAGCUUGAGAGCAUCUUCGGAUGCAGAGGCGGCAGCCUUCGGUGGCGCGAUAGCGCCAACGUUCUCAACUAUGACACGCAAAACGCGUGCGCCAUUGAAUGGAGCUUAUCAUG [U130G G133A U144C] | ≤ -4.2
GGAUCUUCUCGAUCUAACAAAAAAGACAAAUCUGCCACAAAGCUUGAGAGCAUCUUCGGAUGCAGAGGCGGCAGCCUUCGGUGGCGCGAUAGCGCCAACGUUCUCAACUAUGACACGCAAAACGCGUGCUCCGAUGAAUAGAGUUUAUCAUG [U134A G140A] | -3.58
GGAUCUUCUCGAUCUAACAAAAAAGACAAAUCUGCCACAAAGCUUGAGAGCAUCUUCGGAUGCAGAGGCGGCAGCCUUCGGUGGCGCGAUAGCGCCAACGUUCUCAACUAUGACACGCAAAACGCGUGCUCCGUUGAUUGGAGUUUUUCAUG [A138U A147U] | -3.38
GGAUCUUCUCGAUCUAACAAAAAAGACAAAUCUGCCACAAAGCUUGAGAGCAUCUUCGGAUGCAGAGGCGGCAGCCUUCGGUGGCGCGAUAGCGCCAACGUUCUCAACUAUGACACGCAAAACGCGUGCUCCGUUGAAUAGAGUUUAUCAUG [G140A] | -2.67
GGAUCUUCUCGAUCUAACAAAAAAGACAAAUCUGCCACAAAGCUUGAGAGCAUCUUCGGAUGCAGAGGCGGCAGCCUUCGGUGGCGCGAUAGCGCCAACGUUCUCAACUAUGACACGCAAAACGCGUGCUCCGUUGUAUGGAGUAUCUCAUG [A137U U145A A147C] | ≤ -4.2
GGAUCUUCUCGAUCUAACAAAAAAGACAAAUCUGCCACAAAGCUUGAGAGCAUCUUCGGAUGCAGAGGCGGCAGCCUUCGGUGGCGCGAUAGCGCCAACGUUCUCAACUAUGACACGCAAAACGCGUGCUCCUUAGAAGGGAGGUUAUCUUG [G133U U135A U139G U144G A150U] | -4.1
GGAUCUUCUCGAUCUAACAAAAAAGACAAAUCUGCCACAAAGCUUGAGAGCAUCUUCGGAUGCAGAGGCGGCAGCCUUCGGUGGCGCGAUAGCGCCAACGUUCUCAACUAUGACACGCAAAACGCGUGCUCCGUUUAAUGGACUUUAUCAUG [G136U G143C] | -3.26
GGAUCUUCUCGAUCUAACAAAAAAGACAAAUCUGCCACAAAGCUUGAGAGCAUCUUCGGAUGCAGAGGCGGCAGCCUUCGGUGGCGCGAUAGCGCCAACGUUCUCAACUAUGACACGCAAAACGCGUGCACCGUUGAAUGGAGAUUAUCAUG [U130A U144A] | ≤ -4.2
GGAUCUUCUCGAUCUAACAAAAAAGACAAAUCUGCCACAAAGCUUGAGAGCAUCUUCGGAUGCAGAGGCGGCAGCCUUCGGUGGCGCGAUAGCGCCAACGUUCUCAACUAUGACACGCAAAACGCGUGGUCCGUUGAAUGGAAUUUAUCAUG [C129G G143A] | -2.23
GGAUCUUCUCGAUCUAACAAAAAAGACAAAUCUGCCACAAAGCUUGAGAGCAUCUUCGGAUGCAGAGGCGGCAGCCUUCGGUGGCGCGAUAGCGCCAACGUUCUCAACUAUGACACGCAAAACGCGUGCUCCGUUGCGUGGAGUUUAUCAUG [A137C A138G] | -3.68

Variant | polymerase ribozyme fitness (log ratio)
GGAUCUUCUCGAUCUAACAAAAAAGACAAAUCUGCCACAAAGCUUGAGAGCAUCUUCGGAUGCAGAGGCGGCAGCCUUCGGUGGCGCGAUAGCGCCAACGUUCUCAACUAUGACACGCAAAACGCGUGCUCGUUUGAAUGGAGUUUAUCAUG [C132G G133U] | -2.9
GGAUCUUCUCGAUCUAACAAAAAAGACAAAUCUGCCACAAAGCUUGAGAGCAUCUUCGGAUGCAGAGGCGGCAGCCUUCGGUGGCGCGAUAGCGCCAACGUUCUCAACUAUGACACGCAAAACGCGUGCUCGGGUGAAUGGAGUUUAACAUG [C132G U134G U148A] | ≤ -4.2
GGAUCUUCUCGAUCUAACAAAAAAGACAAAUCUGCCACAAAGCUUGAGAGCAUCUUCGGAUGCAGAGGCGGCAGCCUUCGGUGGCGCGAUAGCGCCAACGUUCUCAACUAUGACACGCAAAACGCGUGCGCCGUUGAAUGGAGUUUAUCAUG [U130G] | -2.99
GGAUCUUCUCGAUCUAACAAAAAAGACAAAUCUGCCACAAAGCUUGAGAGCAUCUUCGGAUGCAGAGGCGGCAGCCUUCGGUGGCGCGAUAGCGCCAACGUUCUCAACUAUGACACGCAAAACGCGUGCCCCGUUGAAUGGAGUUUAUCAUG [U130C] | 1.27
GGAUCUUCUCGAUCUAACAAAAAAGACAAAUCUGCCACAAAGCUUGAGAGCAUCUUCGGAUGCAGAGGCGGCAGCCUUCGGUGGCGCGAUAGCGCCAACGUUCUCAACUAUGACACGCAAAACGCGUGCACCGUUGAAUGGAGUUUAUCAUG [U130A] | -1.66
GGAUCUUCUCGAUCUAACAAAAAAGACAAAUCUGCCACAAAGCUUGAGAGCAUCUUCGGAUGCAGAGGCGGCAGCCUUCGGUGGCGCGAUAGCGCCAACGUUCUCAACUAUGACACGCAAAACGCGUGCUCCGUUUAAAGGAGUUUAACAUG [G136U U139A U148A] | ≤ -4.2
GGAUCUUCUCGAUCUAACAAAAAAGACAAAUCUGCCACAAAGCUUGAGAGCAUCUUCGGAUGCAGAGGCGGCAGCCUUCGGUGGCGCGAUAGCGCCAACGUUCUCAACUAUGACACGCAAAACGCGUGCUCCGUUCAAUGGAGUUUAUCAGG [G136C U151G] | ≤ -4.2
GGAUCUUCUCGAUCUAACAAAAAAGACAAAUCUGCCACAAAGCUUGAGAGCAUCUUCGGAUGCAGAGGCGGCAGCCUUCGGUGGCGCGAUAGCGCCAACGUUCUCAACUAUGACACGCAAAACGCGUGCUCCGUUGUAUGGAGUUUAGCAUG [A137U U148G] | ≤ -4.2
GGAUCUUCUCGAUCUAACAAAAAAGACAAAUCUGCCACAAAGCUUGAGAGCAUCUUCGGAUGCAGAGGCGGCAGCCUUCGGUGGCGCGAUAGCGCCAACGUUCUCAACUAUGACACGCAAAACGCGUGCUCCGUCGAAUGGAGUUUAUCAAG [U135C U151A] | ≤ -4.2
GGAUCUUCUCGAUCUAACAAAAAAGACAAAUCUGCCACAAAGCUUGAGAGCAUCUUCGGAUGCAGAGGCGGCAGCCUUCGGUGGCGCGAUAGCGCCAACGUUCUCAACUAUGACACGCAAAACGCGUGCUCCGUUGAAGGGAGUAUAUCUGG [U139G U145A A150U U151G] | ≤ -4.2
GGAUCUUCUCGAUCUAACAAAAAAGACAAAUCUGCCACAAAGCUUGAGAGCAUCUUCGGAUGCAGAGGCGGCAGCCUUCGGUGGCGCGAUAGCGCCAACGUUCUCAACUAUGACACGCAAAACGCGUGCUCCAUUUAGUGGAGUUUAUCAUG [G133A G136U A138G] | ≤ -4.2
GGAUCUUCUCGAUCUAACAAAAAAGACAAAUCUGCCACAAAGCUUGAGAGCAUCUUCGGAUGCAGAGGCGGCAGCCUUCGGUGGCGCGAUAGCGCCAACGUUCUCAACUAUGACACGCAAAACGCGUGCUCCGUUGAAGGGAGUUUAUGAUG [U139G C149G] | -3.88
GGAUCUUCUCGAUCUAACAAAAAAGACAAAUCUGCCACAAAGCUUGAGAGCAUCUUCGGAUGCAGAGGCGGCAGCCUUCGGUGGCGCGAUAGCGCCAACGUUCUCAACUAUGACACGCAAAACGCGUGCUUCGUUGAAUGGAGUUUACCAUG [C131U U148C] | -2.73
GGAUCUUCUCGAUCUAACAAAAAAGACAAAUCUGCCACAAAGCUUGAGAGCAUCUUCGGAUGCAGAGGCGGCAGCCUUCGGUGGCGCGAUAGCGCCAACGUUCUCAACUAUGACACGCAAAACGCGUGCUCCGUUGAAGGGAGUUUAACAUG [U139G U148A] | -2.73
GGAUCUUCUCGAUCUAACAAAAAAGACAAAUCUGCCACAAAGCUUGAGAGCAUCUUCGGAUGCAGAGGCGGCAGCCUUCGGUGGCGCGAUAGCGCCAACGUUCUCAACUAUGACACGCAAAACGCGUGCUCCGUUGUAUGGAGGUUAUCAUG [A137U U144G] | -4.2
GGAUCUUCUCGAUCUAACAAAAAAGACAAAUCUGCCACAAAGCUUGAGAGCAUCUUCGGAUGCAGAGGCGGCAGCCUUCGGUGGCGCGAUAGCGCCAACGUUCUCAACUAUGACACGCAAAACGCGUGCUCUGUUGAAGAGAGUUUAUCAUG [C132U U139G G140A] | 1.22
GGAUCUUCUCGAUCUAACAAAAAAGACAAAUCUGCCACAAAGCUUGAGAGCAUCUUCGGAUGCAGAGGCGGCAGCCUUCGGUGGCGCGAUAGCGCCAACGUUCUCAACUAUGACACGCAAAACGCGUUCUCCGUUGAAUGGAGUUUAUCAUG [G128U] | -2.53
GGAUCUUCUCGAUCUAACAAAAAAGACAAAUCUGCCACAAAGCUUGAGAGCAUCUUCGGAUGCAGAGGCGGCAGCCUUCGGUGGCGCGAUAGCGCCAACGUUCUCAACUAUGACACGCAAAACGCGUGCUCCGUUGAUUGGAGUUUAUCACG [A138U U151C] | -4.01
GGAUCUUCUCGAUCUAACAAAAAAGACAAAUCUGCCACAAAGCUUGAGAGCAUCUUCGGAUGCAGAGGCGGCAGCCUUCGGUGGCGCGAUAGCGCCAACGUUCUCAACUAUGACACGCAAAACGCGUGCUCCGUUGAUUGCAGUUUAUCAUG [A138U G141C] | -3.88
